Data on 55 compounds can be found in publication PMC4336329 (PLoS ONE, 2015).

Each structure is given as a SMILES string. In all, about 310,000 compounds went through this assay and about 14,000 (4.5%) showed an effect of 50% or more. Effects have a minus sign here. This is one part of the list.
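Further: peak tail current of the secondary pulse compared with the same well before compound.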

This assay deals with human ether-à-go-go-related gene (hERG) potassium channel (human, UniProt Q12809). The assay is described as follows: primary screen, population patch clamp on CHO cells stably expressing hERG.
human ether-à-go-go-related gene (hERG) potassium channel, sequence (Q12809 whole entry, looked up): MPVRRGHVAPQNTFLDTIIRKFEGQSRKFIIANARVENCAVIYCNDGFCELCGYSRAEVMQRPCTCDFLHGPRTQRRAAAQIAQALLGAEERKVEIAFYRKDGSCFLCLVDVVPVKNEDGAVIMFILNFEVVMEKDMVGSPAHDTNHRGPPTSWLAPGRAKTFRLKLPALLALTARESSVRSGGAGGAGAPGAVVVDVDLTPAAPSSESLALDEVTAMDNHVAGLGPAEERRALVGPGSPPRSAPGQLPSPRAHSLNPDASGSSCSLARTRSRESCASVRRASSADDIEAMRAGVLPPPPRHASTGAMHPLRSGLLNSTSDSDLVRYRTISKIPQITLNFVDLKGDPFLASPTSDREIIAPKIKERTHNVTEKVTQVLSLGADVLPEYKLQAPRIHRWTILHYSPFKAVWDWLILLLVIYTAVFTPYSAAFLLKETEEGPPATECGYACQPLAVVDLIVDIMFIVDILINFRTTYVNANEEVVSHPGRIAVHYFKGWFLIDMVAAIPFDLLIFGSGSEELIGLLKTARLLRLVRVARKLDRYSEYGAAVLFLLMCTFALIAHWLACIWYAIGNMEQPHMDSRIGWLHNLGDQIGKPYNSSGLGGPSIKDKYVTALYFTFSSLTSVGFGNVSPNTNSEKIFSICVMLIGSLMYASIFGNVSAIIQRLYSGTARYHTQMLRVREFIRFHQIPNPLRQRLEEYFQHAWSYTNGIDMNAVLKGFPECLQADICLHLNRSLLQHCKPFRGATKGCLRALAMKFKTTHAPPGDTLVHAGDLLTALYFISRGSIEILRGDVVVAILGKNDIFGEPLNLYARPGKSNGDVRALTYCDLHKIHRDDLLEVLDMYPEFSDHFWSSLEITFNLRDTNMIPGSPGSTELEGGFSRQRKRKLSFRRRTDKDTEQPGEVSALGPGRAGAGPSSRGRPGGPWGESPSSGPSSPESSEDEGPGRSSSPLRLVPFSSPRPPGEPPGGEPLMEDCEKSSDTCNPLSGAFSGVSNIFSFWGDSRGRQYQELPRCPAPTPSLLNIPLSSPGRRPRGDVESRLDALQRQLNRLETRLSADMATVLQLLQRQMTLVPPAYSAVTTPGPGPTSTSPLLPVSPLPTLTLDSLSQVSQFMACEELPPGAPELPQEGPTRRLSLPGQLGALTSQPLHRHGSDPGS
For `CN1CCN(CCNC(=O)c2ccc3nc(-c4ccc(F)cc4)c(-c4ccc(F)cc4)nc3c2)CC1`, the “hERG current change (%, negative = inhibition) at 10uM” value is reported as -50.6%.
The result for `N#Cc1nc(Cc2cccc3ccccc23)oc1N1CCCCC1` reads -0.431%; that for `CCOC(=O)Cn1nc(C)n(-c2ccc(C(C)(C)C)cc2)c1=O`, -8.38%.
The result for `Cc1nnc(SCC(=O)Nc2ccccc2)c2ccccc12` reads 7.89%; that for `Clc1cccc(Nc2nc(-c3ccncc3)cs2)c1`, 17.5%; that for `O=C1Nc2ccccc2N(O)N1c1cc(-c2ccccc2Cl)no1`, 6.26%.
The result for `CC1=C(C(=O)OC(C)C)C(c2ccsc2)NC(=O)N1C` (stereo not shown) reads 9.03%.
On to `O=C(c1ccc(F)cc1)N1CCCC(C(=O)N2CCCCC2)C1` (stereo not shown), for which the “hERG current change (%, negative = inhibition) at 10uM” value is on record as 16.5%.
For `COc1ccc(CCNC(=S)NNC(=O)c2c(Br)c(C)nn2C)cc1OC` the value was 11.3%.
For `O=C(O)c1ccc2cccc(O)c2n1` the value was 20.7%.
The result for `O=C(NCCN1CCOCC1)c1cc([N+](=O)[O-])cc([N+](=O)[O-])c1` reads 18%; that for `CC(C)CCNC(=O)COc1ccc2c3c(c(=O)oc2c1)CCC3`, 4.09%; that for `N#CC1(NC(=O)COc2ccc3oc4ccccc4c3c2)CCCCC1`, 12.1%.
`O=C(CCCN1C(=O)/C(=C/c2cccs2)SC1=S)Nc1ccccc1O`: the “hERG current change (%, negative = inhibition) at 10uM” value was 15.3%.
As for `CCn1cc(CN2CCC(n3nccc3NC(=O)CCCc3ccccc3)CC2)c(C)n1`, the “hERG current change (%, negative = inhibition) at 10uM” value is listed as -28.4%.
For `CCOc1ccccc1C1CC(=O)Nc2c1c(=O)n(C)c(=O)n2C` (stereo not shown) the value was 7.34%; for `COc1ccccc1NC(=O)CSc1nnc(CC(=O)Nc2ccccc2F)n1C`, 11.4%.
For `CC(C)(Oc1ccc(Cl)cc1)C(=O)Nc1ccc2oc(-c3ccncc3)nc2c1` the value was 4.89%; for `CCC(CO)NCc1ccc(-c2ccccc2)cc1.Cl` (stereo not shown), -31.8%.
The result for `Cc1ccc(NC(=O)Cn2c(=S)[nH]c3ccccc32)cc1` reads 19.7%; that for `Cc1ccc(S(=O)(=O)Nc2nc3ccccc3nc2NCC2CCCO2)cc1C` (stereo not shown), -32.5%.
With `O=C(NNC(=O)c1ccc(-n2cncn2)c([N+](=O)[O-])c1)c1cccc(Cl)c1`, the “hERG current change (%, negative = inhibition) at 10uM” value was -26.3%.
For `COc1ccc(NC(=O)CC(Cc2ccccc2)C(=O)O)cc1` (stereo not shown) the value was 5.21%; for `C[C@H](NC(=O)N1CCn2c1nc1ccccc12)C(=O)NCc1ccc(F)cc1`, -29.6%; for `CCOC(=O)c1c(CN2CCCCC2)n(C)c2cc(Br)c(O)c(CN(C)C)c12`, -19%.
For `O=C(O)C(=O)O.O=C(c1ccco1)N1CCN(Cc2cccc3ccccc23)CC1` the value was -24.3%.
The result for `Cc1ccc(OCCOC(=O)c2c(-c3ccccc3)noc2C)cc1` reads 7.59%; that for `COc1ccc(C2=C(Nc3ccc(C)cc3)c3ccccc3C2=O)cc1`, 3.57%; that for `Cc1ccc2nc(-c3sc4nc(C)cc(C)c4c3N)[nH]c2c1`, 8.93%.
On to `O=C(CC1(O)C(=O)Nc2ccccc21)c1cccc(-n2cccc2)c1` (stereo not shown), for which the “hERG current change (%, negative = inhibition) at 10uM” value was found to be 26.1%.
The result for `COc1ccc(CCCNC(=O)C2CCC(=O)N(Cc3ccccc3F)C2)cc1` (stereo not shown) reads -25.9%; that for `COC(=O)c1ccc(S(=O)(=O)N2CCOCC2)o1`, 31.4%.
For `O=c1cc[nH]c2ccc([N+](=O)[O-])cc12` the value was 2.42%; for `CC(C)N1CC2(c3ccccc3)CN(C(C)C)CC(c3ccccc3)(C1)C2=O`, -48.4%.
The result for `O=C(Nc1cc(C(F)(F)F)ccc1N1CCCC1)C1CCCO1` (stereo not shown) reads -12%; that for `CCCc1c(OCCCOc2ccc(OCC(=O)O)cc2)ccc(C(C)=O)c1O`, 21.8%; that for `O=C(NC1CC2CCC(C1)N2C(=O)NCc1ccccc1)NC12CC3CC(CC(C3)C1)C2` (stereo not shown), 16.1%.
As for `COc1cccc(-n2c(SCc3cc(=O)oc4cc(O)c(O)cc34)nc3ccccc3c2=O)c1`, the “hERG current change (%, negative = inhibition) at 10uM” value was -11.3%.
For `O=C(Nc1ccccc1C(=O)Nc1ccccn1)c1cccc([N+](=O)[O-])c1` the value was -58.2%; for `C/C=C/CSc1nc2c(c(=O)[nH]c(=O)n2C)n1C(C)C`, -1.61%; for `COc1cc(C2C(C#N)=C(N)Oc3cc(N)ccc32)cc(OC)c1OC` (stereo not shown), 12.5%.
As to `COc1ccc(CC(=O)Nc2ccc(S(=O)(=O)N3CCN(C)CC3)cc2)cc1`, the “hERG current change (%, negative = inhibition) at 10uM” value is reported as 10.5%.
For `Cc1ccc(/C=N\Nc2cn[nH]c(=O)c2Cl)cc1` the value was -9.41%.
For `CCCCn1c(=O)[nH]c(=O)c2c1nc(-c1cc3c(cc1Br)OCO3)n2C` the value was -18.1%.
For `COc1ccc(C2NC(=S)N3C(c4ccc(OC)cc4)NC(=S)N23)cc1` (stereo not shown) the value was 16.2%; for `O=C(Nc1ccccc1C(=O)OCC(=O)N1CCc2ccccc2C1)c1ccco1`, -30.9%.
Take `CCn1c(CSc2nc(C)cc(C)n2)nnc1SCC(=O)Nc1nc(-c2ccccc2)cs1`: the “hERG current change (%, negative = inhibition) at 10uM” value was -9.09%.
The result for `COc1cccc(CNC(=O)CCc2nnc(C3CCCCC3)o2)c1` reads -0.274%.
The result for `N/C(=N\OC(=O)c1cccc([N+](=O)[O-])c1)c1ccccn1` reads 16.7%; that for `Cc1ccccc1C(=O)Nc1cccc(C(=O)N/N=C/c2ccc3c(c2)OCO3)c1`, -5.69%.
The result for `Cc1occc1-c1nnc(SCC(=O)NC2CC2)n1C(C)C` reads 19.2%; that for `O=C(c1nn2c(C(F)(F)F)cc(-c3ccc(F)cc3)nc2c1Cl)N1CCOCC1`, -10.2%.
For the compound `CCCCn1c(N)c(N(CC)C(=O)c2ccc(Cl)c([N+](=O)[O-])c2)c(=O)[nH]c1=O`, the “hERG current change (%, negative = inhibition) at 10uM” value came out at 26%.
The result for `O=C(N/N=C/c1c(F)c(F)c(F)c(F)c1F)c1ccc(Cn2cc(Br)cn2)o1` reads -15.9%.
The result for `CCOc1ccc(NC(=O)c2ccc3c(SCC(=O)O)c4c(nc3c2)CCCC4)cc1` reads 18.6%.
